Variants at the floor of the assay are shown more often than the library holds them.
B1: TPR 5TU (parent)
chain: GGAUCUUCUCGAUCUAACAAAAAAGACAAAUCUGCCACAAAGCUUGAGAGCAUCUUCGGAUGCAGAGGCGGCAGCCUUCGGUGGCGCGAUAGCGCCAACGUUCUCAACUAUGACACGCAAAACGCGUGCUCCGUUGAAUGGAGUUUAUCAUG

Variants of: B1
Assay: polymerase ribozyme fitness, log enrichment relative to wild type (log ratio); higher = more active; in vitro selection for triplet polymerase activity
Summary of the method: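 Fitness measures genotype enrichment against wild-type enrichment on a logarithmic scale, with inverse-variance-weighted averaging of replicates. The logarithm is base 2, and genotypes were kept only with ≥10 input reads and ≥1 read per output in Illumina sequencing. The sequenced libraries came from one triplicate in vitro selection round, including frozen incubation at −7 °C, of PCR-built, transcribed mutant libraries of each subunit of a heterodimeric triplet polymerase ribozyme.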

Polymerase ribozyme fitness (log ratio), ≤ -4.2:
GGAUCUUCACGAUCUAACAAAAAAGACAAAUCUGCCACAAAGCUUGAGAGCAUCUUCGGAUGCAGAGGCGGCAGCCUUCGGUGGCGCGAUAGAGCCAACGUUCUCGACUAUGACACGCAAAACGCGUGCUCCGUUGAAUGGAGUUUAUCAUG [U9A C93A A106G]
GGAUCUUCACGAUGUAACAAAAAAGAGAAAUCUGCCACAAAGCCUGAGAGCAUCUUCGGAUGCGGAGGCGGCAGCCUUCGGUGGCGCGAUAGCGCUAACGGUCUCAACUAUGACACGCAAAACGCGUGCUCCGUUGACUGGAGUUUAUCAUG [U9A C14G C27G U44C A64G C96U U101G A138C]
GGAUCUUCACGAUCUAACAAAAGAGACAAAUCUGCCACAAAGCUUGAGAGCAUCUUCGGAUGCAGAGGCGGCAGCCUUCGGUGGCGCGAUAGCGCCAACGUUCUCAACUAUGACUCGCAAAAGGCGUGCUCCGUUGAAUCGAGUUUAUCAUG [U9A A23G A115U C123G G140C]
GGAUCUUCACGAUCUAACAAAAAAGACAAAUCUGCCACAAAGCUUGAGAGCAACUUCGGAUGCAGAGGCGGCAGCCUUCGGUGGCGCGAUAGCGCCAACGUUCUCAACUAUGACACGCAAAACGCGUGCUCCGUUGAAUGGAGUUUAUCAUG [U9A U53A]
GGAUCUUCACCAUCUAACAAAAAAGACAAAUCUGCCACAAAGCUUGAGAGCAUCUUCGGAUGCAGAGGCGGCGGCCUUCGGUGGCGUGAUAGCGCCAACGUACUCAACUAUGACACGCAAAACGCGUGCUCCGUUGAAUGGAGUUUAUCAUG [U9A G11C A73G C87U U102A]
GGAUCUUCACGAUCUAACCAAAAAGACAAAUCUGCCACAAAGCUUGAGAGCAUCUUCGGAUGCAGAGGCAGCAGCCUUCGGUGGCGCGAUAGUGCCAACGUUCUCAACUAUGACACGCCAUACGCGUGCUCCGUUGAAUGGAGUUUAUCAUG [U9A A19C G70A C93U A119C A121U]
GGAUCUUCACGAUCUAACAAAAAAGACAAAUCUGCCACAAAGCUUGAGAGCAUCUUCGGAUGCAGAGGCGGUAGCCUUCGAUGGCGCGAUAGCGUCAACGUUCUCAACUAUGACACGCAAAACGCGUGCUCCGUUGAAUGGAGUUUAUCAUG [U9A C72U G81A C95U]
GGAUCUUCCCGAUCUAACAAAAAAGCCAAAUCUGCCACAAAGCUUGAGAGCAUCUUCGGAUGCAGAGGCGGCAGCCUUCGGUGGUGCGAUAGCGCCAACGUUCUCAACUAUGACACGCAAAACGCGUGCUCCGUUGAAUGGAGUUUAUCUUG [U9C A26C C85U A150U]
GGAUCUUCACGAUCUAACAAAAAAGACAAAUCUGCGACAAAGCUUGAGAGCAUCUUCGGAUGCAGAGGCGGCAGCCUUCGGUGGCGCGAUGGCGACAACGUUCUCAACUAUGACACGCAAAACGCGUGCUCCGUUGAAUGGAGUUUAUCAUG [U9A C36G A91G C95A]
GGAUCUUCACGAUCUAACAAAAAAGACAUAUCUGCCACAAAGCUUGGGAGCAUCUUCGGAUGCGGAGGCGGCAGCCUUCGGUGGCGCGAUAGGGCCAACGUUCUCAACUAUGACACGCAAAACGCGUGCUCCGUUGAAGGGAGUUUAACAUG [U9A A29U A47G A64G C93G U139G U148A]
GGAUCUUCACGAUCUAACAAAAAAGACAACUCUGCCACAAAGCUUGAGAGCAUCUUCGUAUGCAGAGGUGGCAGCCUUCGGUGGCGCGACAGCGCCAACGUUCCCAACUAUGACACGCAAAACGCGUGCUCCUUUGAAUGGAGUUUAUCAUG [U9A A30C G59U C69U U90C U104C G133U]
GGAUCUUCACGAUCUAACAAAAAAGAGAAAUCUGCCACAAAGCUUGAGAGCAUCUUCGGAUGCAGAGGCGGCUGCCUUCGGUGGCGCGAUAGUGCCAACGUGCUCAACUAUGACACGCAAAACGCGUGCUCCGUUGAAUGGAGUUUAUGAUU [U9A C27G A73U C93U U102G C149G G152U]
GGAUCUUCCCGAUCUCACAAAAAAGACAAAUCUGCCACAAAGCUUGAGAGCAUUGUCAGAUGCAGAGGCGGCAGCCUUCGGUGGCGCGAUAGCGCCAACGUUCUCAACUAUGACACGCAAAACGCGUGCUCCGUUGAAUGGAGUUUAUCAUG [U9C A16C C54U U55G G58A]
GGAUCUUCCCGAUCUUACAAAAAAGACAAAUCUGCCACAAAGCUUGAGAGCAUCUACGGAUGCAGAGGCGGCAGCAUUCGGUGGAGCGAUUGCGCCAAGGUUCUCAACUAUGACACGCUAAACGCGUGCUCCGUUGAAUGGAGUUUAUCAUG [U9C A16U U56A C76A C85A A91U C99G A119U]
GGAUCUUCACGAUCUAACAAAAAAGACAAAUCUGCCACAAAGCUUGAGAGCAUCUUCGGAUGCAGAGGCGGCAGCCUUAGGUGGCGAGAUAGCGCCAACGUUCUCAACUAUGACAUGCAAAACGCGUGCUCCGUUGAAUGGAGUUUAUCAUG [U9A C79A C87A C116U]
GGAUCUUCCCGAUCUAACUAAAAAGACAAAUCUGCCACAAAGCUUGAGAUCAUCUUCGGAUGCAGAGGCGGCAGCCUUCGGUGGAGCGAUAGCGCCAACGUUCUCAAGUAUGACACGCAAAACGCGUGCUCCGUUGAAUGGAGUUUAUCAUG [U9C A19U G50U C85A C108G]
GGAUCUUCACGAUCUAACAAAAAAGACAAAUCUGCCACAAAGCUUGAGAACAUCUUCGGAUGCAGAGGCGGCAGCCUUCGGGAGCGCGAUAGCGCCAGUGUUCUCAACUAUGACACGCAAAACCCGUGCUCCGGUGAAUGGAGUUUAUCAUG [U9A G50A U82G G83A A98G C99U G124C U134G]
GGAUCUUCACGAUCUAACAAAAAAGACAAAUCUGCCACAAAGCUUGAGAGCAGCUUCGGAUGCAGAGGCGGCAGCCUUCGGUGGCGCGAUCGCGUCAACGUUCUCAACUAUGACACGCAAAACGCGGGCUCCGUUGAAUGGAGUUUAUCAUG [U9A U53G A91C C95U U127G]
GGAUCUUCACGAUCUAACAAAAAAGACAAAUCUGCCACAAUGCUUGAGAGCAUCUUCGGAUGCAGAGGCGGCAGCCUUCGGUGGCGCGAUAGCGCCAACGUUCUCAACUAUGACACGCAAAACGCGUGCUCCGUUGAAUGGUGUUUAUCAUG [U9A A41U A142U]
GGAUCUUCACGAUCUAACAAAAAAUACAAAUCUGGCACAAAGCUUGAGAGCAUCUUCCGAUGCAGAGGCGGCAGCCUUCGGCGGGGCGAUAGCGCCAACGUUCUCAACUAUGACACGCAAAACGCUUGCUCCGAUGAAUGGAGUUUCUCAUG [U9A G25U C35G G58C U82C C85G G126U U134A A147C]
GGAUCUUCACGAUCUAACAAUAAAGACAAAUCUGCCACAUACCUUGAGAGCAUCUUCGGAUGCAGAGGCGGCAGCCUUCGGUGGAGCGAUAGCGCCAACGUUCUCAACUAUGACACGCAAAACGCGUGCUCCGUUGAAUGGAGUUGAUCAUG [U9A A21U A40U G42C C85A U146G]
GGAUCUUCACGAUCUAACAAAAAAGACAAGUCUGCCACAGAGCUUGAGAGCAUCUUCGGAUGCAGAGGCGGCAGCCUUCGGUCGCGCGAUAGCGCCAACGUUCUCAACUAUGACACGCAAAACGCGUGCUCCGUUGAAUGGAGUUUAUCAUG [U9A A30G A40G G83C]
GGAUCUUCACGAUCUAACAAAAAAGACAAAUCUGCCACAAAGCUUGAGAGCAUCUUCGGAUGCAGAGCCGGCAGCCUACGGUGGCGCGAUAGCGCCAACGUUCUCAACUAUGACACGCAAAACGCGUGCUCCGUUGAAUGGAGUUUAUCAUG [U9A G68C U78A]
GGAUCUUCACGAUCUAACAAAAAAGACAAAUCUGCCACACAGCUUGAGAGCAUCUUCGGAUGCAGAGGCGGCAGCCUUCGGUGGCGCGAUAGCGCACACGUUCUCAAUUAUGACACGCAAAACGCGUGCUCCGUUGAAUGGAGUUUAUCAUG [U9A A40C C96A A97C C108U]
GGAUCUUCACGAUCUAACAAAAAAGACAAAUCUGCCACAAAGCAUGAGAGCAUCUUCGAAUGCAGAGGCGGCAGCCUUCGCUGGCGCGAUAGCGCCAACGUUCUCAACUAUGACACGCAAAACGCGUGCUCCGUUGAAUGGAGUUUAUCAUG [U9A U44A G59A G81C]
GGAUCUUCACGAUCUAACAAAAAAGAUAAAUCUGCCACAAAGCUUGAGAGCCUCUUCGGAUGCAGAGGCGGCAGCCUUCGGUGGCGCCAUAGCGCCAACGUUCUCAACUAUGACACGCAAACCGCGUGCUCCGUUGGAUGGAGUUUAUCAUG [U9A C27U A52C G88C A122C A137G]
GGAUCUUCACGAUCUAACAAAAAAGUCAAAUCUGCCACUAAGCUUGAGAGCAUCUUCGGAUGCAGAGGCGGCAGACUUCGGUGUCGCGAUAGCGCCAACGUUCUCAACUAUGACACGCAAAACGCGUGCUCCGUAGAAUGGAUUUUCUCAUG [U9A A26U A39U C75A G84U U135A G143U A147C]
GGAUCUUCACGAUCUAUCAAAAAAGACAAAUCUGCCACAAAGCUUGAGAGCAUCAUCGGAUGCAUAGGCAGCAGCCUUCGGUGGCGCGAUAUCGCCAACGUGCUCAACUAUGACACGCAAAACGCGUGCUCCGUUGAAUGGAGUUUAUCCUG [U9A A17U U55A G65U G70A G92U U102G A150C]
GGAUCUUCAGGAUCUAACAAAAAAGACAAAUCUGCCACAAUGCUUGAGAGCAUCUUCGGAAGCAGAGGCGGCAGCCUUCGGUGGCGCGAUAGCGCCAACGUUCUCAACUAUGACACGGAAAUCGCGUGCUCCGUUGAAUGGAAUUUAUCAUG [U9A C10G A41U U61A C118G A122U G143A]
GGAUCUUCACGAUCUAACAAAAAAGACAAAUCUGCCAUAAAGCUUGAGAGCAUCUACGGAUGCAGAGGCGGCAGCCUUCGGUGGUGCGGUAGCGCCAACGUUCUCAACUAAGAUACGCAAAACGAGUGCUCCGGUGAAUGGGGUUUAUCAUG [U9A C38U U56A C85U A89G U111A C114U C125A U134G A142G]
GGAUCUUCACGAUCUAACAAAAAAGACAAAUCUGCCACAAAGCUUGAGAGCAACUUCGGAUGCAGAGGCGGCAGCCUUCGGUGGCGCGAUAGCGCAAACGUUCCCAACUAUGACACGCAAAACGCGUGCUCCGUUGAAUGAAGUUUAUCAUG [U9A U53A C96A U104C G141A]
GGAUCUUCACGAUCUAACAAAAAAGACAAAUCUGCCACAAAGCUUGAGAGCAUCUUCGGAUGCAGAGGCGGCAGCCUUCGGUGGUGCGAUAGCGCCAACGUUCUCAACUAUGUCACGCAAAACGCGUGCUCCGUUGAAUGGAGUUUAUCAUG [U9A C85U A113U]
GGAUCUUCCCGAUCUAACACAAAAGACAAAUCUGCCACAAAGCUUGAGAGCAUCUUCCGAUGCAGAGGCGGCAGCCUUCGGUGGCGAGAUAGCGCCAACGUUCUCAACUAUGACACGCAAAACGCGUGCUCCGUUGAAUGGAGAUUAUCAUG [U9C A20C G58C C87A U144A]
GGAUCUUCACGAUCUAACAAAAAAGACAAAUCUGCCACAAAGCUUGAGAGCAUCUUCGGAUGCAGAGGCGGCAGCCUUCGGUUGCGCGUUGGCGCCAACGUUCUCAACUAUGACACGCAAAACGCGUGCUCCGUUGAAUGGAGUUUAUCAUG [U9A G83U A89U A91G]
GGAUCUUCACGAUCUAACAAGAAAGACAAAUCUGCCACAAGGCUUGAGAGCAUCUUCGGAUGCAGAGGCGGCACCCUUCGGCGGCGCGAUAGCGCAAACGUUCUUAACUAUGACACGCAAAACGCGUGCUUCUUUGAAUGCAGUUUAUCAUG [U9A A21G A41G G74C U82C C96A C105U C131U G133U G141C]
GGAUCUUCACGAUCUAAGAAAACAGACAAAUCUGACACAAAGCUUGAGAGCAUCUUCGGAUGCAGAGGCGGCAGCCUUCGGUCGCGCGAUAGCGCCAACGUUCUCAACUAUGACACGCAAAACGCGUGCUCCGUUGAAUGGAGUUUAUCAUG [U9A C18G A23C C35A G83C]
GGAUCUUCCCGAUCUGUCAAAAAAGACAAAUCUGCCACAAAGCUUGAGAGCAUCUUCGGAUGAAGAGGCGGCAGCCUUCGGUGGCGCAAUAGUGCCAACGUUCUCAACUAUGACACGCAAAACGCGUGCUCCGUUGAAUGGAGUUUAUCAUG [U9C A16G A17U C63A G88A C93U]
GGAUCUUCACGAUCUAACAAAGUAGAAAAAUCUGCCACAAAGCUUGAGAGCAUCUUCGGAUGCAGAGGCGUCAGCCUUCGGUCGCGCGAUAGCGCCAACGUUCUCAAAUAUGACACGCAAAACGCGUGCUCCGUUGAAUGGAGUAUAUCAUG [U9A A22G A23U C27A G71U G83C C108A U145A]

From the RNAGym collection of RNA variant scans (doi:10.1073/pnas.2313332121)
